# The whole screen tested about 310,000 compounds, of which about 14,000 (4.5%) showed an effect of 50% or more. The effect is printed as a negative number. The list shows a part of the results.
# Target: human ether-à-go-go-related gene (hERG) potassium channel (human, UniProt Q12809)
# Experiment: primary screen, population patch clamp on CHO cells stably expressing hERG
# 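Note: peak tail current of the secondary pulse compared with the same well before compound.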
# Chain of human ether-à-go-go-related gene (hERG) potassium channel (Q12809 whole entry, looked up): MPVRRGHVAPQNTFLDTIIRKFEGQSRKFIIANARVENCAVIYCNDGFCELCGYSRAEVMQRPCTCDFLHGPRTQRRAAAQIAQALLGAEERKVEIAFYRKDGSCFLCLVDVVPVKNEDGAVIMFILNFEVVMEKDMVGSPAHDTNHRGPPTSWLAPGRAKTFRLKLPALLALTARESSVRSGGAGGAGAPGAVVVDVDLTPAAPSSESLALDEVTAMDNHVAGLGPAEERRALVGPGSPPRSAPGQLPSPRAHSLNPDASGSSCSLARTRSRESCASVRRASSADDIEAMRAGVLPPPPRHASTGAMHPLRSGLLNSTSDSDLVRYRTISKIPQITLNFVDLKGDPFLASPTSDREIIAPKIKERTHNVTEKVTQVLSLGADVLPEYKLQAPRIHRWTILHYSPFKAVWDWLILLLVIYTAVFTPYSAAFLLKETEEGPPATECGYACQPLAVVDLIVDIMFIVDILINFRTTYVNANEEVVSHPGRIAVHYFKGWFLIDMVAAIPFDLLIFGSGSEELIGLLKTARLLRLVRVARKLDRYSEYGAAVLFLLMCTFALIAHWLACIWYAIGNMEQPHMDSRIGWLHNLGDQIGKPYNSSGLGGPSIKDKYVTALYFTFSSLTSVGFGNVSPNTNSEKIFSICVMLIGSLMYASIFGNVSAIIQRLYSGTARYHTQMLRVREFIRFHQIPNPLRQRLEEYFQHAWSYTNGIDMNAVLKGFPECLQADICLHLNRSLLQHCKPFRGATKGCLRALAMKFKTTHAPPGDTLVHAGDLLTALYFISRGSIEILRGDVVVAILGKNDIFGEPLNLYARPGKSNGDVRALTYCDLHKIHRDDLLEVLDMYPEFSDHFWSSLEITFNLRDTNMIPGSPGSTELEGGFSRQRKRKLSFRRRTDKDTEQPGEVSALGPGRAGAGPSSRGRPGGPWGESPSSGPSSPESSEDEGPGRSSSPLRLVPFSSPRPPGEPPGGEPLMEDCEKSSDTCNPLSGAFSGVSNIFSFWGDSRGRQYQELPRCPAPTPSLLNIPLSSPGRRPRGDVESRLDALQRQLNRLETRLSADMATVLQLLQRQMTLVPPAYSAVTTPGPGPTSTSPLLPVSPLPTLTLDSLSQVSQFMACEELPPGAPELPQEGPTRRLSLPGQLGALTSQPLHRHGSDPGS
row,SMILES,"hERG current change (%, negative = inhibition) at 10uM [%]"
1,O=C(c1cc(C(=O)NCc2ccccc2)c(=O)n(Cc2ccccc2)c1)c1cc(Cl)ccc1O,-0.908
2,CCOC(=O)N1CCN(C(=O)Cc2cccc3ccccc23)CC1,3.71
3,Fc1ccccc1NC(=S)NCCc1cccc(Cl)c1,9.75
4,CCC/C(=N\NC(=O)C1CC1)c1ccccc1,-2.21
5,CCOc1cc(NC(=S)NCc2ccco2)c(OCC)cc1NC(=O)CC(C)C,15.4
6,Cc1ccc(-c2nc3ccccc3[nH]2)cc1NC(=S)NC(=O)c1ccccc1Br,13.6
7,COc1ccc(-c2nnc3sc(C(C)N4C(=O)c5ccccc5C4=O)nn23)cc1 (centres unmarked),-25.2
8,CCS(=O)(=O)c1ccc(O)c(NC(=O)Nc2ccc(C(C)(C)C)cc2)c1,9.2
9,CS(=O)(=O)c1ccc(Cl)c(NC(=O)CCCc2nc3ccccc3c(=O)[nH]2)c1,-1.05
10,O=c1cc(O)c2ccccc2[nH]1,16.2
11,CCn1c(COc2ccc(OC)cc2)nc2ccccc21,-19.8
12,Cc1ccc(-c2cc(C(F)F)n3ncc(C(=O)N4CCc5ccccc54)c3n2)cc1,13.2
13,CNS(=O)(=O)c1cccc(C(=O)Nc2cccc(Cl)c2)c1,-14.9
14,Cc1c(CCO)c(=O)n2c([nH]c3ccccc32)c1C#N,5.61
15,Nc1ccc(C(=O)C(=O)c2ccc(N)cc2)cc1,14.2
16,CC1CCCCN1c1cc(C#N)c(C#N)cc1[N+](=O)[O-] (centres unmarked),-16
17,C=CCSc1nc2c(c(=N)n1CC=C)C1CCCC1S2 (centres unmarked),-13.6
18,COC(=O)c1cc(CNC(=O)c2ccc(N3CCCC3)c([N+](=O)[O-])c2)ccc1OC,-23.7
19,COc1ccc(C(=O)N(Cc2ccco2)Cc2cc3cc(C)ccc3[nH]c2=O)cc1OC,-9.61
20,COc1ccc(-c2ncncc2-c2ccccc2)c(O)c1,-0.926
21,O=C(Nc1ccccc1)C1=C[C@H](c2coc3ccccc3c2=O)C[C@H](OCCCCO)O1,-70.3

row,SMILES,"hERG current change (%, negative = inhibition) at 10uM [%]"
1,CC1CCc2c(sc(NC(=O)CN3CCN(C(=O)c4ccco4)CC3)c2C#N)C1 (centres unmarked),-41.5
2,O=C(Nc1ccc2oc(=O)ccc2c1)c1cccnc1,-5.25
3,N#CC(C#N)=C(N)/C(C#N)=C\c1ccc(O)cc1,8.75
4,O=C(Nc1ccccc1N1CCCCC1)c1ccc(N2C(=O)c3ccccc3C2=O)cc1,5.73
5,Cc1ccc2c(Cn3cc(C(F)(F)F)cc(Cl)c3=O)cc(=O)oc2c1,-3.27
6,CCc1nnc(NC(=O)c2ccc(-c3ccc(Cl)cc3)o2)s1,3.87
7,CCOc1ccc2nc(Cl)c(C3CC(c4ccccc4)=NN3C(=O)c3ccco3)cc2c1 (centres unmarked),3.9
8,CCNC(=O)O/N=C(\C)c1sc(-c2ccccc2)nc1C,-11.2
9,CC(C)(C)Nc1ncnc2sc(-c3ccccc3)cc12,-5.57
10,CCN1CCN(CCC(=O)Nc2ccc3c(c2)OCO3)CC1.Cl,5.98
11,Cc1nc(-c2ccccn2)sc1C(=O)Nc1ccc(F)cc1,-3.08
12,O=C(Nc1ccc(F)cc1)N1CCN2C(=O)c3ccccc3C12c1ccccc1 (centres unmarked),-16.6
13,CCOc1ccc(CCNS(=O)(=O)c2cc3c(cc2C)NC(=O)CO3)cc1OCC,-22.7
14,Cc1cc(NC(=O)CCC(=O)N(Cc2ccco2)C2(C(=O)NC3CCCCC3)CCCC(C)C2)no1 (centres unmarked),-24.1
15,COc1ccc(CC(=O)NNC(=O)COc2ccc(Cl)cc2C)cc1S(=O)(=O)N1CCOCC1,-36.1
16,C/C(CC(=O)Nc1cccc2c1CCCC2)=N\NC=O,23
17,c1cncc(-c2nnc3n2C2(CCCCC2)Cc2ccccc2-3)c1,-5.73
18,CCN(CC)S(=O)(=O)c1ccc(OC)c(NC(=O)C2CC(=O)N(c3ccc4c(c3)OCCO4)C2)c1 (centres unmarked),-11.8
19,CC(=O)c1cccc(NC(=O)N2CCCC2C(=O)Nc2ccc3c(c2)OCCO3)c1 (centres unmarked),-7.21
20,CCc1ccc(NC(=O)c2sc3nc(C)nc(N4CCN(c5ccccn5)CC4)c3c2C)cc1,5.47
21,COc1ccc(NC(=O)C(NC(C)=O)C(=O)NCc2ccccc2Cl)cc1 (centres unmarked),-2.4

row,SMILES,"hERG current change (%, negative = inhibition) at 10uM [%]"
1,N/C(=N\S(=O)(=O)c1cc(C(F)(F)F)cc(C(F)(F)F)c1)c1ccccc1,-8.14
2,C=CCNC(=S)/N=C/c1c(O)[nH]c(=O)[nH]c1=O,-52.8
3,CCS(=O)(=O)Nc1cccc(C(=C2CCCCC2)c2cnc[nH]2)c1,-30.2
4,C=CCn1c(-c2cccc(S(=O)(=O)N(CC)CC)c2)n[nH]c1=S,4.2
5,CCN(CC)S(=O)(=O)c1ccc(Nc2nc3ccccc3n3nnnc23)cc1,6.62
6,O=C(CSc1nnc(-c2cccc(Cl)c2)o1)Nc1ccc2c(c1)OCCO2,-3.43
7,COc1ccc(NS(=O)(=O)c2cc(NC(=O)c3ccc(=O)[nH]n3)ccc2C)cc1,1.51
8,COC(=O)CCCC1=CC2=CC(=O)C(C)(OC(=O)c3cccs3)C(=O)C2=CN1Cc1ccccc1 (centres unmarked),-16.8
9,CCOc1ccc(N2C(=O)Nc3ccc(Br)cc3C2(O)C(=O)NC(C)C)cc1 (centres unmarked),8.92
10,Cc1ccc(CN2CCC(N3CCC(C(=O)NCC4CCCO4)CC3)CC2)o1 (centres unmarked),-4.02
11,C=CCn1c2ccccc2c2nnc(SC(CC)C(=O)Nc3nc(C)c(C(=O)OCC)s3)nc21 (centres unmarked),-43.9
12,Cc1nc2ccc(Cl)cc2c(-c2ccccc2)c1CC(=O)O,21.3
13,N#CC(c1nc2ccccc2nc1N1CCCC1)S(=O)(=O)c1cccs1 (centres unmarked),15.5
14,CN(C)S(=O)(=O)c1cccc(NC(=O)CSc2nnnn2-c2ccccc2)c1,0.149
15,COC(=O)c1cc(NC(=O)CSc2nc(C)cc(=O)[nH]2)cc(C(=O)OC)c1,4.49
16,O=S(=O)(c1cc(Cl)ccc1Cl)N1CCN(Cc2ccc3c(c2)OCO3)CC1,-0.611
17,Cc1nn(C)c(C(=O)N/N=C/c2cccc3ccccc23)c1Cl,-9.5
18,CCn1cc([N+](=O)[O-])c(C(=O)N2N=C(c3ccc(OC)cc3OC)CC2c2ccccc2O)n1 (centres unmarked),8.13
19,CCOc1ccc(C(=O)Nc2cccc(-c3nc4cccnc4o3)c2)cc1Cl,-28
20,Cc1nc2ccc(NC(=S)NC3CC3)cc2nc1C,1.58
21,CC(=O)N(C(C)=O)c1ccc2nc(C)[nH]c(=O)c2c1,2.02

row,SMILES,"hERG current change (%, negative = inhibition) at 10uM [%]"
1,c1ccc(-c2nnc(CSc3nnc(-c4ccncc4)n3Cc3ccco3)o2)cc1,-29.8
2,CC(=O)NCCn1c(SCc2cc(=O)n3cc(Cl)ccc3n2)nc2ccccc2c1=O,-50.7
3,Cc1cc(C(=O)COC(=O)CCC(=O)c2ccc3c(c2)OCCO3)c(C)n1Cc1ccco1,8.06
4,COc1ccc(/C=C(/C(=O)Nc2ccccc2C(=O)N2CCCC2)c2ccccc2)cc1,-25.8
5,Cc1c(NS(=O)(=O)c2ccc(NC3CCCC3)c([N+](=O)[O-])c2)c(=O)n(-c2ccccc2)n1C,-19.7
6,CN(C)CCCN(Cc1ccccc1)C(=S)Nc1ccc(OC(F)F)cc1,-70.3
7,CN(c1ccc(-c2csc(NC(=O)C3CC(=O)N(Cc4ccco4)C3)n2)cc1)S(C)(=O)=O (centres unmarked),-19
8,COc1ccc(C)cc1NC(=O)C(NCC1CCCO1)c1ccccc1 (centres unmarked),-51.4
9,COCC(=O)Nc1nc2n(n1)C(c1ccccc1Cl)CC(c1ccc(OC)cc1)N2 (centres unmarked),-18.6
10,O=c1cc(CSc2nnc(-c3ccco3)o2)c2ccccc2[nH]1,-7.54
11,Cc1nc2c(-c3ccccc3)c(C)nn2c(C)c1CCC(=O)O,-10.6
12,CSCCC(NC(=O)c1cccc(S(=O)(=O)N2CCOCC2)c1)c1nc2ccccc2[nH]1 (centres unmarked),-23.2
13,COCCN1C(=O)/C(=C/c2ccc(OCc3ccc(C(=O)O)cc3)c(OC)c2)SC1=Nc1ccccc1,7.58
14,CC(=NCCN1CCNCC1)C1=C(O)CC(C)(C)CC1=O,1.32
15,COCCNC(=S)N(Cc1cccnc1)Cc1ccc(OC)c(OC)c1.O=C(O)C(=O)O,9.52
16,CCc1noc(C)c1C(=O)NNC(=O)c1ccccc1F,21
17,Cc1cc(C(=O)CSc2nnc(-c3ccccc3)n2-c2ccccc2)c(C)n1-c1ncn[nH]1,17.7
18,c1ccc(-c2onc(-c3ccco3)c2-c2ccc3[nH]ccc3c2)cc1,19.4
19,CCn1cc(C(=O)NCC(OC)OC)c(=O)c2cc(S(=O)(=O)N3CCOCC3)ccc21,9.8
20,COc1ccc(N(Cc2ccccc2)C(=O)CSc2nnc(Cn3nnc4ccccc43)o2)cc1,-12.3

# Source: publication PMC4336329 (PLoS ONE, 2015)
